Measured values taken from patent US5411733A (priority 1992, dated 1995).

How the values were obtained:
herpesvirus = assay type: cell-based
CMV = assay type: cell-based

Compound	antiherpesviral activity of serum (herpesvirus)	influence on CMV proliferation (CMV)
Nc1nc2c(ncn2COCCO)c(=O)[nH]1 [Acyclovir, acyclovir]	antiherpesviral activity was displayed	–
NC(=O)c1ncn([C@@H]2O[C@H](CO)[C@@H](O)[C@H]2O)c1O [mizoribine]	–	inhibited CMV proliferation
C=CC[C@@H]1/C=C(\C)C[C@H](C)C[C@H](OC)[C@H]2O[C@@](O)(C(=O)C(=O)N3CCCC[C@H]3C(=O)O[C@H](/C(C)=C/[C@@H]3CC[C@@H](O)[C@H](OC)C3)[C@H](C)[C@@H](O)CC1=O)[C@H](C)C[C@@H]2OC [FK 506]	–	hardly affects CMV proliferation
